According to US20240376128A1, “N-CYCLOPROPYLPYRIDO [4, 3-D] PYRIMIDIN-4-AMINE DERIVATIVES AND USES THEREOF” (Jacobio Pharmaceuticals Co., Ltd., priority 2021, published 2024):

Tests used:
Type in all cases: cell-based
[1] = test system: MKN-1 cell line (K-Ras WT amplification); assay: Phospho-ERK1/2(THR202/TYR204) HTRF assay; settings: Homo sapiens; MKN-1 cells (K-Ras WT amplification), 2 hours incubation; read-out: p-ERK, IC50(nM) MKN-1
[2] = test system: K-Ras mutant and K-Ras WT cell lines indicated in Table 20; assay: 2D cell growth inhibition assay (CellTiter-Glo, 6 days); settings: 144 h, AGS (K-Ras G12D), absolute IC50, read-out: Cell Growth Inhibition, IC50, AGS
Protocol: Each of cells in culture medium was plated in TC-treated 96-well plates at a density indicated in Table 20 and incubated in a cell incubator overnight.

[3] = test system: K-Ras mutant and K-Ras WT cell lines indicated in Table 20; assay: 3D cell growth inhibition assay (CellTiter-Glo 3D, 6 days); settings: Homo sapiens, 144 h, MKN-1 (K-Ras WT), absolute IC50, read-out: Cell Growth Inhibition, IC50, MKN-1
[4] = test system: NCI-H460 cell line (K-Ras Q61H); assay: Phospho-ERK1/2(THR202/TYR204) HTRF assay; settings: Homo sapiens; NCI-H460 cells (K-Ras Q61H), 2 hours incubation; read-out: p-ERK, IC50(nM) NCI-H460
[5] = test system: AGS cell line (K-Ras G12D); assay: Phospho-ERK1/2(THR202/TYR204) HTRF assay; settings: Homo sapiens; AGS cells (K-Ras G12D), 2 hours incubation; read-out: p-ERK, IC50(nM) AGS
[6] = test system: SW620 cell line (K-Ras G12V); assay: Phospho-ERK1/2(THR202/TYR204) HTRF assay; settings: Homo sapiens, SW-620; SW620 cells (K-Ras G12V), 2 hours incubation; read-out: p-ERK, IC50(nM) SW620

| Structure (SMILES) | IC50 [1] | IC50 [2] | IC50 [3] | IC50 [4] | IC50 [5] | IC50 [6] |
| --- | --- | --- | --- | --- | --- | --- |
| C#Cc1c(F)ccc2cc(O)cc(-c3ncc4c(N(C)[C@@H]5C[C@H]5F)nc(OC[C@@]56CCCN5C[C@H](OC)C6)nc4c3F)c12 (mixture of isomers) [Compound 5, 5-ethynyl-6-fluoro-4-(8-fluoro-4-((trans-2-fluorocyclopropyl)(methyl)amino)-2-(((2R,7aS)-2-methoxytetrahydro-1H-pyrrolizin-7a(5H)-yl)methoxy)pyrido[4,3-d]pyrimidin-7-yl)naphthalen-2-ol] | 27.4 nM | 0.0347 µM | 0.0774 µM | 113 nM | – | – |
| C#Cc1c(F)ccc2cc(O)cc(-c3ncc4c(N(C)[C@@H]5C[C@H]5F)nc(OC[C@@]56CCCN5C[C@H](F)C6)nc4c3F)c12.O=C(O)C(F)(F)F (single isomer, unassigned) [Compound 3] | – | – | – | – | 4.74 nM | 2.69 nM |
